Some of the results follow.
What follows are molecules tested on T1, C. trachomatis L2/434/Bu expressing GFP (CTL2-GFP). Settings: total inclusion area; 28.5 h, 10 µM; inhibitor.
T1 construct: L2/434/Bu GFP intracellular growth in HeLa cells
Design: species or system HeLa; C. trachomatis total inclusion area by high-content imaging, normalised to DMSO
Procedure, shortened: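 Following bulk GFP and resorufin fluorescence reads, infected cells were fixed, Hoechst-stained and imaged on a high-content platform. Inclusion total area and number per well served as growth proxies; nuclei counts indicated host viability. MICs were derived as for the fluorescence assay.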
In the case of `COc1cc2c(cc1OC)C(C)N(C(=O)Nc1ccc3c(c1)OCCO3)CC2` (centres unmarked) [CBK086204], the “% of control remaining” value is reported as 97.0723.
In the case of `COc1cc(CN2C[C@@H](c3ccccc3)[C@@H]3NC(=O)CCCC[C@H]32)cc(OC)c1` [CBK285646], the “% of control remaining” value is reported as 92.8595.
`COc1ccc([C@@]23CC[C@@H](NC(=O)c4cc(F)c(Cl)cc4Cl)C[C@@H]2N(C)CC3)cc1OC` [CBK074264T] was tested, and the “% of control remaining” value was 35.9325.
For `CCOC(=O)Cn1nc(-c2nonc2N)nc1-c1nonc1N` [CBK265482], the “% of control remaining” value was 94.5297.
For `CCN(Cc1ccc(C#N)cc1F)C(=O)Nc1cnn(CCOC)c1` [CBK305697], the “% of control remaining” value was 62.9932.
With `O=C(NCCNc1c(Cl)cccc1[N+](=O)[O-])c1cccc(Br)c1` [CBK263940] the “% of control remaining” value was 89.9414.
`CC1CCCCC1NC(=O)NC(=O)Cn1nnc2ccccc2c1=O` (centres unmarked) [CBK306046] was tested, and the “% of control remaining” value was 43.8934.
With `COc1ccc(-c2nc(-c3cccc(F)c3)cnc2N)cc1OC` [CBK063948] the “% of control remaining” value was 129.666.
For `CN(C)C(=O)N1CCC2(CC1)CC(=O)N(Cc1ccc(S(C)(=O)=O)cc1)C2=O` [CBK155957], the “% of control remaining” value was 48.9595.
With `CNC(=O)CSc1nc2cc(Cl)ccc2c(=O)n1CC1CCCO1` (centres unmarked) [CBK305937] the “% of control remaining” value was 92.1593.
`O=C1CCC(=O)N1CCn1c(=O)n(C(=O)CCC2CCCC2)c2ccccc21` [CBK106495] was tested, and the “% of control remaining” value was 70.3184.
For `Cn1ccc(C(=O)NC2CCN(c3ncccn3)CC2)cc1=O` [CBK304280], the “% of control remaining” value was 99.6268.
`CCCC(=O)Nc1cccc(NC(=O)c2nc[nH]n2)c1` [CBK269604] was tested, and the “% of control remaining” value was 61.372.
In the case of `O=C(Nc1ncc(Cc2ccc(F)cc2)s1)C1CCCCC1` [CBK058611], the “% of control remaining” value is reported as 98.6863.
With `CC(=O)C(C)n1c(=O)c2c(nc3oc(C(C)(C)C)cn32)n(C)c1=O` (centres unmarked) [CBK306027] the “% of control remaining” value was 30.3188.
`CCOC(=O)CN1CCN(c2nccnc2OC2CCCCC2)CC1` [CBK082837T] was tested, and the “% of control remaining” value was 70.8922.
In the case of `COc1ccc(NC(=O)N[C@@H]2CC[C@@]3(c4ccc(OC)c(OC)c4)CCN(C)[C@H]3C2)c(C)c1` [CBK036460T], the “% of control remaining” value is reported as 67.0363.
For `Cc1cc(CN(C)Cc2c(-c3ccccc3)nn(C)c2C)n[nH]1` [CBK281707], the “% of control remaining” value was 94.8443.
In the case of `Cn1nccc1C(=O)N1CCC2(C/C=C/COc3ccccc3C(=O)NC[C@@H](Cc3ccccc3)NC2=O)CC1` [CBK292183], the “% of control remaining” value is reported as 89.7585.
In the case of `COCCCNC(=S)N/N=C/c1ccco1` [CBK006272], the “% of control remaining” value is reported as 60.6926.
`CN(C)S(=O)(=O)c1ccc(NC(=O)CCC(=O)O)cc1` [CBK267156] was tested, and the “% of control remaining” value was 110.524.
In the case of `Cc1nn(C)cc1CN(CCCn1ccnc1)Cc1cccc(F)c1` [CBK283098], the “% of control remaining” value is reported as 121.208.
In the case of `CCOc1nc(=O)c(C)cn1C1CC(O)C(CO)O1` (centres unmarked) [CBK201334], the “% of control remaining” value is reported as 91.6245.
With `Cc1cn([C@H]2C[C@@H](O)[C@@H](CO)O2)c(N)nc1=O` [CBK201327] the “% of control remaining” value was 130.275.
`COC(=O)c1ccccc1NC(=O)CSCc1ccc(Cl)cc1Cl` [CBK131712] was tested, and the “% of control remaining” value was 59.159.
`COc1cc(OC)c(NC(=O)C(C)Oc2ccc(Br)cc2)cc1Cl` (centres unmarked) [CBK266791] was tested, and the “% of control remaining” value was 101.377.
`O=C1CCN(Cc2nc(-c3cccc(C(F)(F)F)c3)no2)CCN1` [CBK306368] was tested, and the “% of control remaining” value was 77.8587.
For `O=S(=O)(c1ccc(F)c(Cl)c1)N1CCCN(Cc2ccccc2)CC1` [CBK045211], the “% of control remaining” value was 83.9184.
With `O=C(O)/C=C/C(=O)Nc1cccc(C(=O)O)c1` [CBK260988] the “% of control remaining” value was 102.578.
With `Cc1ccc(S(=O)(=O)N(CC(=O)NCC2CCCO2)c2cccc(C)c2C)cc1` (centres unmarked) [CBK265339] the “% of control remaining” value was 91.15.
With `Brc1ccc2c(c1)[C@H]1C=CC[C@H]1[C@@H](c1ccccc1)N2` [CBK303238] the “% of control remaining” value was 73.265.
In the case of `COc1ccc(-c2coc3c(C)c4oc(=O)c(CC(=O)O)c(C)c4cc23)cc1` [CBK269403], the “% of control remaining” value is reported as 67.5962.
With `CCOC(=O)CCNC(=O)c1ccccc1-n1cccc1` [CBK149611] the “% of control remaining” value was 75.2338.
For `COc1cccc(CNC(=O)C2CCN(c3nc4c(-c5cccc(C)c5)csc4c(=O)[nH]3)CC2)c1` [CBK215603], the “% of control remaining” value was 109.473.
For `OCc1ccc(-c2nccnc2NCc2cccc(C(F)(F)F)c2)cc1` [CBK037076], the “% of control remaining” value was 84.615.
For `C[C@H](c1ccccc1)n1c(=O)[nH]c2ncc(-c3ccc(N(C)C)cc3)nc21` [CBK064367], the “% of control remaining” value was 124.998.
For `O=C(NC1CCN(CC2(c3ccccc3)CC2)CC1)c1ccco1` [CBK285321], the “% of control remaining” value was 96.456.
For `COC(=O)c1sccc1S(=O)(=O)N1CCN(c2ncnc3scc(C)c23)CC1` [CBK023600], the “% of control remaining” value was 104.439.
In the case of `O=C(Cc1csc(-c2ccc(Cl)cc2)n1)N1CCN(c2ccccn2)CC1` [CBK107310], the “% of control remaining” value is reported as 80.6528.
For `COc1cc(C2CC(=O)Nc3nc(N)[nH]c(=O)c32)ccc1OCc1ccc(F)cc1` (centres unmarked) [CBK293980], the “% of control remaining” value was 39.6301.
With `COc1ccc(N(CC(=O)N2CCN(C)CC2)S(=O)(=O)c2ccc(C)c([N+](=O)[O-])c2)cc1` [CBK264051] the “% of control remaining” value was 92.528.
`CC(=O)Nc1cccc(-n2cnnc2SCC2CCOCC2)c1` [CBK306354] was tested, and the “% of control remaining” value was 40.8591.
`Cc1c(C(C)NCC(C)(C)N(C)C)cnn1-c1ccc(C#N)cc1` (centres unmarked) [CBK306447] was tested, and the “% of control remaining” value was 54.2377.
For `COC(=O)[C@@H]1Cc2ncn(C(C)C)c2CN1C(=O)C1CCCCC1` [CBK288989], the “% of control remaining” value was 117.381.
For `N=C(N)SCc1ccc(CSC(=N)N)cc1` [CBK278309C], the “% of control remaining” value was 106.475.
For `CCC1(C)Cc2sc3[nH]c(=O)c(SCC(N)=O)nc3c2CO1` (centres unmarked) [CBK020581], the “% of control remaining” value was 43.0784.
In the case of `Cc1c(C)n(Cc2ccco2)c2ncnc(NCCCC(=O)O)c12` [CBK307562], the “% of control remaining” value is reported as 103.419.
In the case of `OC(COCc1ccco1)CN1CCc2sccc2C1C1CC1` (centres unmarked) [CBK305167], the “% of control remaining” value is reported as 104.22.
With `CCN(Cc1ccncc1)C(=O)NCCc1ccc(OC)cc1` [CBK155149] the “% of control remaining” value was 107.543.
In the case of `CN(C)c1nc2n(c(=O)n1)CCS2` [CBK019025], the “% of control remaining” value is reported as 70.3238.
With `CN(Cc1ccccc1N1CCCC1)C(=O)Cc1cn2ccsc2n1` [CBK305897] the “% of control remaining” value was 57.0833.
For `CC(=O)c1c[nH]c(=O)[nH]c1=O` [CBK012093], the “% of control remaining” value was 116.495.
In the case of `CCOC(=O)COc1ccc(S(=O)(=O)N2CCN(Cc3ccc4c(c3)OCO4)CC2)cc1` [CBK074492], the “% of control remaining” value is reported as 116.133.
`Cc1nc(-c2cc3c(s2)CCN(CC(O)COCc2ccco2)C3)cs1` (centres unmarked) [CBK304460] was tested, and the “% of control remaining” value was 107.494.
For `Cc1ccc2nc(NC(=O)c3cc(C)n(C)n3)sc2c1` [CBK287668], the “% of control remaining” value was 97.9197.
`COc1ccc(-c2nnc(SCC(=O)Nc3cc(C)on3)n2C2CCCCC2)cc1` [CBK297510] was tested, and the “% of control remaining” value was 99.086.
For `Cc1nn(CC(C)C)c(Cl)c1C(=O)Nc1nc2ccc(F)cc2s1` [CBK252188], the “% of control remaining” value was 99.7063.
With `CC(CCN1CCN(Cc2ccccc2)CC1)c1ccccc1` (centres unmarked) [CBK261902] the “% of control remaining” value was 92.4323.
With `O=C(NCC1COc2ccccc2O1)c1ccc(-c2ccc(OC(F)(F)F)cc2)nc1` (centres unmarked) [CBK156214] the “% of control remaining” value was 96.1621.
With `COc1cccc(-c2ccc(C(=O)NCc3ccccc3SC)c(N3CCN(C(=O)c4ccco4)CC3)n2)c1` [CBK106025] the “% of control remaining” value was 98.1863.
`COc1cc(Br)c(OC)c(C(=O)N(C)Cc2cnn(C)c2)c1` [CBK244011] was tested, and the “% of control remaining” value was 40.6625.
In the case of `O=C(c1cncnc1)N1CCc2ccccc21` [CBK200272], the “% of control remaining” value is reported as 72.2584.
`O=C1CC(c2ccccc2F)C2=C(COC2=O)N1` (centres unmarked) [CBK086692] was tested, and the “% of control remaining” value was 88.289.
With `Cc1cc(S(=O)(=O)NCc2ccccc2-n2ccnc2)ccc1F` [CBK281477] the “% of control remaining” value was 109.054.
`CSCC[C@H](NC(=O)c1cccc2c1-c1ccccc1C2=O)C(=O)O` [CBK286781] was tested, and the “% of control remaining” value was 48.0589.
For `Fc1ccc2[nH]c3c(c2c1)CCNC31CCN(CCOc2ccccc2)C1` (centres unmarked) [CBK085404T], the “% of control remaining” value was 74.8664.
In the case of `CS(=O)(=O)N(Cc1ccc(Cl)cc1)c1ccc(C(=O)Nc2ccccc2C(=O)O)cc1` [CBK264093], the “% of control remaining” value is reported as 102.361.
With `COc1ccc(-c2nccnc2NCCCN(C)C)cc1` [CBK037671] the “% of control remaining” value was 82.5583.
In the case of `Fc1cccc(Nc2nc(C3CCNCC3)c3ccccn23)c1` [CBK281522], the “% of control remaining” value is reported as 99.6268.
For `O=C(NNc1nc(-c2ccccc2)cc(-c2ccccc2)n1)Nc1ccccc1` [CBK262223], the “% of control remaining” value was 76.1072.
With `Cn1c(=O)c2c(ncn2CC(=O)Nc2cccc(Br)c2)n(C)c1=O` [CBK133287] the “% of control remaining” value was 87.2825.
In the case of `Cc1csc(C(Cc2ccsc2)NC(=O)C2CCOCC2)n1` (centres unmarked) [CBK285047], the “% of control remaining” value is reported as 94.384.
With `CC(C)(C)c1cc(N)c(C(N)=O)s1` [CBK016752] the “% of control remaining” value was 54.0658.
With `COc1cc2c(cc1OC)C1(CCN(CCc3c[nH]c4ccccc34)CC1)NC(=O)C2` [CBK039992] the “% of control remaining” value was 109.249.
In the case of `Clc1cncc(NCCc2c[nH]c3ccccc23)n1` [CBK093514], the “% of control remaining” value is reported as 35.6202.
`COc1ccc(CN2C(=O)CS(=O)(=O)CC2=O)cc1OC` [CBK011127] was tested, and the “% of control remaining” value was 95.4334.
`Fc1ccc(Br)cc1SCCc1ccccn1` [CBK262330G] was tested, and the “% of control remaining” value was 79.5366.
For `O=C(O)C[C@@H]1CCN(C(=O)c2ccc3c(c2)OCO3)C[C@@H]1CC1=NCCc2ccccc21` [CBK289160], the “% of control remaining” value was 92.3551.
For `Cc1nc(NC(=O)c2ccoc2)sc1C` [CBK296729], the “% of control remaining” value was 106.453.
With `O=C(O)c1ccc(CNCCc2c[nH]c3ccccc23)cc1` [CBK287265] the “% of control remaining” value was 94.236.
